The target in assay [1] is T1, MBP-fused Apc1-loop^500 T532A (Xenopus tropicalis) (UniProt Q08D52).
T1 sequence: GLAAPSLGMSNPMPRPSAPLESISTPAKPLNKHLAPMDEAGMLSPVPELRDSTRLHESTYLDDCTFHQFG
Description: pull-down; MBP-fused Apc1-loop^500 fragments on amylose beads incubated in Xenopus egg anaphase extracts (interphase extracts with non-degradable cyclin B∆167) at 23°C for 60 min; washed with XB^CSF buffer and XB^CSF with 0.01% NP-40; endogenous Plx1 detected by immunoblotting; only the target purified.

The target of assay [2] is T2, MBP-fused Apc1-loop^500 2A (T532A/T539A) (Xenopus tropicalis) (UniProt Q08D52).
T2 sequence: T1 sequence with T25A
The assay is described as above.

The target in assay [3] is T3, Apc1-loop^500 S566A/T567A (Xenopus tropicalis) (UniProt Q08D52).
T3 sequence: T1 sequence with A18T, S52A, T53A
Described as above.

The target in assay [4] is T4, MBP-fused Apc1-loop^500 WT fragment (Xenopus tropicalis, UniProt Q08D52 515-584).
T4 construct: Apc1 (APC/C subunit 1), Xenopus tropicalis, loop^500, residues 515-584; Added unphosphorylated; becomes phosphorylated at CDK sites T532, T539 and S558 when incubated in anaphase egg extracts; MBP is PreScission-cleavable and His6 TEV-cleavable; also called MBP-Apc1-loop^500; CDK^- Apc1-loop^500; source: recombinant, purified as described previously (Fujimitsu & Yamano, 2020); not shown: MBP, …
T4 sequence (looked up): T1 sequence with A18T
Described as above.

Assay [5] deals with T5, MBP-fused Apc1-loop^500 E562A (Xenopus tropicalis) (UniProt Q08D52).
T5 sequence: T1 sequence with A18T, E48A
Described as above.

The target of assay [6] is T4, MBP-fused Apc1-loop^500 WT fragment. Description: condition: only in interphase extracts (no non-degradable cyclin B); pull-down; as a1 but in interphase extracts without non-degradable cyclin B (Appendix Fig S1); only the target purified.
Assay [7] has as its target T2, MBP-fused Apc1-loop^500 2A (T532A/T539A) (Xenopus tropicalis). Description: pull-down; MBP-fused Apc1-loop^500 on amylose beads incubated in anaphase extracts at 23°C for 1 h, then purified Plx1-PBD (10 µg or indicated amounts) added to the extract for 15 min; bound proteins by SDS-PAGE and Coomassie staining; both purified.

Changes are numbered by the printed parent chain. No constants are given. Whether binding was seen depends on the method and setting. For some of these results: In cells and extracts the contact can be indirect. Some binding calls cover weakened binding; strength is not graded here. For some of these results: Where a sequence is shown, tags or fusion partners need not be part of it.

Take “Plx1 (polo-like kinase homolog in Xenopus laevis), endogenous (from UniProt P70032 1-598) (enzyme)”: the binding result in assay [1] was “binds”; in assay [2] it was “binds weakly”; in assay [3], “binds”; in assay [4], “binds”; in assay [5], “binds”; in assay [6], “no binding”.

B1: Plx1-PBD WT (polo-box domain of Plx1) (domain or fragment, Xenopus laevis, UniProt P70032 362-598, looked up)
chain: EPADCYLSEMLQQLTCLNAVKPSERALIRQEEAEDPASIPIFWISKWVDYSDKYGLGYQLCDNSVGVLFNDSTRLIMYNDGDSLQYIERNNTESYLNVRSYPTTLTKKITLLKYFRNYMSEHLLKAGANTTPREGDELARLPFLRTWFRTRSAIILHLSNGTVQINFFQDHTKIILCPLMAAVSYIDEKREFRTYKLSLIQEFGCCKELASRLRYARTMVEKLQSSKSAVAHVKASA
notes: Plx1, Xenopus laevis, polo-box domain, amino acids 362-598; 3xFlag is PreScission-cleavable, His6 TEV-cleavable; cleavage is not reported; also called WT Plx1-PBD; source: E. coli BL21-CodonPlus (DE3), purified (Ni-NTA agarose)
B1: the binding result in assay [7] is reported as “no binding”.

The values are drawn from PMC8441438, “Dynamic regulation of mitotic ubiquitin ligase APC/C by coordinated Plx1 kinase and PP2A phosphatase action on a flexible Apc1 loop” (The EMBO Journal, 2021).
